Data taken from PubChem BioAssay AID938 (National Center for Advancing Translational Sciences (NCATS), 2007).
Screen size: about 73,000 compounds; about 1,800 (2.5%) were called active. Inconclusive results, whose numbers are uncertain, are shown with a selection of clear calls. The call rests on the fitted dose curve; in most records, active means well fitted activation curve with a large enough effect; inconclusive means small, poorly fitted or top-dose-only effect; inactive means no such curve, though single readings can be large or run the other way. No potency is given beside an inconclusive call; the fits are too rough.
Potency means the concentration at half of the fitted maximal effect; tags describe the fitted curve by direction and shape.

Assay: qHTS Assay for Agonists of the Thyroid Stimulating Hormone Receptor: Activators of Intracellular cAMP Concentrations in Parental HEK 293; further: nearly all actives have a fitted effect of over 55% in size; on activation: % of control where 0% means no effect
Conditions: parental HEK293 CNG cAMP sensor, membrane potential fluorescence; activation: at 57.1 µM (top of the series) unless noted
Outline: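 Parental HEK 293 cells stably expressing a cAMP-gated CNG channel were loaded with membrane potential dye containing 100 uM RO 20-1724 for 60 min. Compound added for 30 min; depolarization read as fluorescence intensity at 590 nm.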
With `Cc1c(N=Cc2ccco2)c(=O)n(-c2ccccc2)n1C` the Potency was inconclusive [activator, single point].
In the case of `CCC1CCCCN1C(=O)CSc1nc2c([nH]c3ccccc32)c(=O)n1C` (stereo not drawn), the Potency is reported as active: 31.6 µM.
In the case of `CN(Cc1ccco1)c1ncnc2ccc(-c3cccc(NS(C)(=O)=O)c3)cc12`, the Potency is reported as inconclusive [activator, partial curve, poor fit].
For `Clc1cccc(-c2nc(-c3ccccn3)no2)c1`, the Potency was inconclusive [activator, single point].
With `c1ccc2c(c1)nnn2Cc1nnc2sc(-c3ccc4c(c3)OCCO4)nn12` the “activation” value was inactive: 9.77%.
With `OCCNc1nc(-c2cccnc2)nc2ccccc12` the “activation” value was inactive: -4.86%.
In the case of `CCn1ncc(Br)c1C(=O)N(C)C12CC3CC(CC(C3)C1)C2`, the Potency is reported as inconclusive [activator, partial curve].
In the case of `O=C(COc1ccccc1Cl)Nc1ccc(Cl)cn1`, the “activation” value is reported as inactive: 15.3%.
For `C=CCOC(=O)C(C(=O)CC)C(NC(=O)OC)c1ccc(F)cc1` (stereo not drawn), the activation was inactive: 3.41% [at 11.4 µM].
In the case of `N#CNC(N)=Nc1ccc(Cl)cc1`, the activation is reported as inactive: -2.78% [at 11.4 µM].
In the case of `N#Cc1ccc2ccn(CC(=O)NC3CCCCC3)c2c1`, the Potency is reported as active: 15.8 µM.
For `CCOC(=O)c1cc2c(=O)n3ccccc3nc2n(Cc2ccc(Cl)cc2)c1=N`, the “activation” value was inactive: -29.9%.
With `CN(Cc1ccco1)c1ncncc1-c1cccnc1` the “activation” value was inactive: 10.3%.
In the case of `c1csc(CCNc2ncnc3sc4c(c23)CCC4)c1`, the Potency is reported as active: 20 µM.
With `CN(c1ccc(O)cc1)c1nc(-c2ccccc2)cs1` the “activation” value was inactive: -37.5%.
With `CNCCC=C1c2ccccc2CCc2ccccc21` the Potency was inconclusive [activator, single point].
For `CCN(CC)CCNC(=O)c1ccc(CS(=O)(=O)c2ccc(Br)cc2)o1`, the Potency was inconclusive [activator, partial curve].
For `Cc1ccc2ccccc2c1COC(=O)c1nonc1N`, the Potency was active: 15.8 µM.
In the case of `COc1cc(-c2nnc3sc(-c4ccncc4)nn23)cc(OC)c1OC`, the “activation” value is reported as inactive: -2.18%.
For `Cc1csc(NC(=O)CCCSc2nc3ccccc3s2)n1`, the Potency was inconclusive [activator, single point].
In the case of `Cc1ccc(Sc2oc(/C=N/n3cnnc3)cc2Br)cc1`, the Potency is reported as inconclusive [activator, full curve, poor fit].
In the case of `Cc1nc2ccccc2n1CC(O)Cn1c(C(F)(F)F)nc2ccccc21` (stereo not drawn), the Potency is reported as inconclusive [activator, partial curve].
For `CCOC(=O)c1cnc(SCC(=O)Nc2sc(C)c(C)c2C#N)nc1N`, the “activation” value was inactive: 4.22%.
With `Cc1onc(-c2ccccc2Cl)c1C(=O)Nc1cccc2nsnc12` the Potency was active: 31.6 µM.
For `COc1ccccc1CCn1c(=O)c(-c2ccccc2)nc2cncnc21`, the Potency was active: 3.98 µM.
In the case of `COc1ccc(C(=O)Nc2ccc(-c3ccc(C)o3)cc2)cc1S(=O)(=O)N1CCOCC1`, the “activation” value is reported as inactive: 18.3%.
For `O=C(NC1=NCCS1)c1cccs1`, the “activation” value was inactive: -23.5%.
In the case of `Cc1cccc(-n2nnnc2SCC(=O)c2cc(C)n(CC3CCCO3)c2C)c1` (stereo not drawn), the Potency is reported as inconclusive [activator, single point].
With `CC1=NC2(CCCc3c2no[n+]3[O-])N(O)C1(C)C` (stereo not drawn) the Potency was inconclusive [activator, single point].
For `CC(C)OC(=O)CSc1nc(N)c(C#N)c(-c2cccs2)c1C#N`, the Potency was inconclusive [activator, partial curve].
For `COC(=O)[C@@H]1C[C@H]1[C@@H](NS(=O)(=O)c1ccc2ccccc2c1)c1ccccc1`, the “activation” value was inactive: 18.5%.
In the case of `COc1ccccc1NC(=O)c1ccc(COc2ccccc2OC)o1`, the Potency is reported as inconclusive [activator, single point].
In the case of `C=CCn1c(SCc2ccc(Cl)cc2)nc2c1c(=O)[nH]c(=O)n2C`, the “activation” value is reported as inactive: 23.5%.
For `Nc1ccc(C(=O)c2ccc3c(c2)OCCO3)cc1N`, the “activation” value was inactive: 6.37%.
With `O=C(Nc1ccccc1N1CCN(c2ccc(F)cc2)CC1)c1ccccc1` the Potency was active: 6.31 µM.
For `COc1cc(NC(=O)c2cccs2)cc(OC)c1`, the “activation” value was inactive: -1.23%.
With `Cc1ccc(-n2nnnc2SCC(=O)NC(=O)Nc2ccc3c(c2)OCCO3)cc1` the Potency was inconclusive [activator, single point].
With `CCC1CCCCN1CCNC(=O)c1[nH]c(C)c(C(C)=O)c1C` (stereo not drawn) the Potency was inconclusive [activator, single point].
With `COC(=O)CSc1nc(-c2ccccc2)cc(-c2ccco2)c1C#N` the Potency was inconclusive [activator, partial curve].
For `Cc1nn(-c2ccccc2)c(C)c1C(=O)OCC(=O)c1c(N)n(CC(C)C)c(=O)n(C)c1=O`, the Potency was active: 15.8 µM.
For `O=C(O)c1cccc(NC(=O)c2ccccc2)c1`, the Potency was inconclusive [activator, full curve, poor fit].
In the case of `CCOC(=O)C1CCN(C(=O)COc2cc(C)c(Br)cc2C)CC1`, the Potency is reported as inconclusive [activator, single point].
With `CC(=O)N(CCc1ccccc1C)Cc1cc2cc3c(cc2[nH]c1=O)OCO3` the Potency was inconclusive [activator, single point].
With `O=C(NCc1ccco1)C1(c2ccccc2)CCCC1` the Potency was inconclusive [activator, full curve, poor fit].
For `CN(C)c1ncc2nc(-c3ccccc3)c(=O)n(-c3ccccc3)c2n1`, the “activation” value was inactive: -5.47%.
For `O=C(CC(SCCO)c1ccc(F)cc1)c1ccco1` (stereo not drawn), the “activation” value was inactive: -12.6%.
For `COc1ccc(OC[C@@H](CO)OC)cc1`, the Potency was inconclusive [activator, single point].
For `O=C(Nc1ccccc1)N(CCCN1CCOCC1)Cc1cccs1`, the Potency was inconclusive [activator, single point].
For `COC(=O)[C@@]1(Cc2ccccc2)[C@H]2c3cc(C(=O)N4CCCC4)n(Cc4ccccc4)c3C[C@H]2CN1C(=O)c1ccccc1`, the Potency was active: 1.26 µM.
With `COc1ccccc1-c1nn2c(C3COc4ccccc4O3)nnc2s1` (stereo not drawn) the Potency was active: 25.1 µM.
With `CCN(Cc1ccccc1)C(=O)CCc1nc(-c2ccc(C)cc2)no1` the Potency was inconclusive [activator, partial curve].
With `O=C(COc1ccccc1)NCC(c1cccs1)N1CCOCC1` (stereo not drawn) the Potency was inconclusive [activator, partial curve].
For `CN1CCN(c2nc3c(c(=O)n(C)c(=O)n3C)n2CCSc2nc3ccccc3s2)CC1`, the “activation” value was inactive: 15.8%.
With `CCOC(=O)c1cc(-c2cccs2)nc2onc(C)c12` the “activation” value was inactive: 9.67%.
For `COc1cccc(-c2cc(C(=O)Nc3cccc(O)c3)no2)c1`, the “activation” value was inactive: 26.6%.
With `Cc1ccc(C)c(Cn2nnc3c(=O)[nH]c(C(=O)NCC4CCCO4)nc32)c1` (stereo not drawn) the Potency was inconclusive [activator, single point].
For `Cn1ccnc1SCC(=O)c1ccc(Br)cc1`, the “activation” value was inactive: -1.88%.
With `c1ccc(-c2csc3nnc(SCc4ccc5c(c4)OCO5)n23)cc1` the Potency was inconclusive [activator, partial curve].
For `Cc1ccc(Cn2c(=N)n(CC(O)c3ccco3)c3ccccc32)cc1` (stereo not drawn), the “activation” value was inactive: 13.7%.
With `COc1ccccc1N1CCN(c2ccc(-c3ccccc3)nn2)CC1` the Potency was inconclusive [activator, partial curve].
In the case of `O=C(Nc1ccc2c(c1)nc1n2CCN(C2CCCCC2)C1)c1ccco1`, the “activation” value is reported as inactive: 0.257%.
In the case of `CCOc1ccc(CCNC(=O)c2oc3c(c2C)-c2[nH]ncc2CC3)cc1OCC`, the “activation” value is reported as inactive: 7.59%.
With `Cc1ccc(-n2nc3c(c2NC(=O)C(C)(C)C)CSC3)c(C)c1` the Potency was inconclusive [activator, single point].
With `COc1cccc(-n2c(SCC(=O)NCCc3ccccc3)nnc2-c2ccoc2C)c1` the Potency was inconclusive [activator, single point].
For `CCOc1ccc(C)cc1S(=O)(=O)N1CCCCC1`, the Potency was inconclusive [activator, single point].
With `CC(C)CCNC(=O)C(c1ccco1)N(Cc1cccs1)C(=O)Cn1nnc2ccccc21` (stereo not drawn) the Potency was active: 6.31 µM.
With `Cc1ccc(C)c(C(=O)CN2C(=O)CCC2=O)c1` the Potency was inconclusive [activator, single point].
In the case of `O=C(Nc1ccc2c(c1)OCO2)N1CCN(c2ncccn2)CC1`, the Potency is reported as inconclusive [activator, single point].
In the case of `CCOC(=O)C(C)Sc1nnc(-c2ccccc2O)n1-c1ccc(C)cc1` (stereo not drawn), the Potency is reported as active: 20 µM.
For `CC1CCN(Cc2nc3c(c(=O)n(C)c(=O)n3C)n2Cc2cccc3ccccc23)CC1`, the Potency was inconclusive [activator, single point].
In the case of `COC(=O)c1ccccc1NC(=O)N1c2ccccc2CC1C` (stereo not drawn), the Potency is reported as inconclusive [activator, single point].
For `O=C(COc1ccc(Cl)cc1)N1CCN(C(=O)c2cccc(F)c2)CC1`, the Potency was inconclusive [activator, single point].
With `Cc1nn(-c2ccccc2)nc1CNC(=O)C(C)Cc1ccccc1` (stereo not drawn) the Potency was inconclusive [activator, partial curve, poor fit].
For `O=c1cnc2cnc(Nc3ccccc3)nc2n1CCc1ccccc1`, the “activation” value was inactive: 16.9%.
For `CCC(=O)N/C(=N/c1nc(C)cc(C)n1)Nc1cccc(OC)c1`, the Potency was inconclusive [activator, partial curve].
For `O=C(CSc1nc2c(c(=O)n1-c1ccc(Br)cc1)SCC2)Nc1nccs1`, the Potency was inconclusive [activator, full curve].
In the case of `CC(=O)Nc1ccc(S(=O)(=O)N(C)c2ccccc2)cc1`, the “activation” value is reported as inactive: 0.753%.
For `CN(C)C(=O)c1ccc(-c2cncnc2Nc2ccc(F)cc2)cc1`, the Potency was inconclusive [activator, single point].
